From article PMC13038412, “Hetero-oligomerization drives structural plasticity of eukaryotic peroxiredoxins” (Nature Chemical Biology, 2026)
No constants are given. Whether binding was seen depends on the method and setting. For some assays here: Binding seen in cells or lysates may run through a third protein. Some binding calls cover weakened binding; strength is not graded here. Tags and fused reporters may be left off the sequences shown.

Legend:
His6-Tsa2 [1] = target: T1, His6-Tsa2 (S. cerevisiae, UniProt Q04120 1-196); experiment: pull-down; both genes coexpressed from one pCOLADuet plasmid in E. coli; tandem-affinity purification Ni-NTA then StrepTactin, or vice versa; eluates on reducing SDS-PAGE, western blot (semiquantitative, calibrated with individually purified proteins)
T1 construct: Tsa2, Prx1/AhpC-type peroxiredoxin of Saccharomyces cerevisiae; TSA2 from pET15b/His6-TSA2; calculated mass of His6-Tsa2 23.8 kDa; also called His6-tagged Tsa2; His-Tsa2; source: E. coli SHuffle T7 Express, purified (Ni-NTA) from pET15b; or coexpressed with Strep-Tsa1 / Strep-Tsa1ΔCR from pCOLADuet and tandem purified (Ni-NTA, StrepTactin); not shown: His6, N-terminal, kept
T1 sequence (looked up): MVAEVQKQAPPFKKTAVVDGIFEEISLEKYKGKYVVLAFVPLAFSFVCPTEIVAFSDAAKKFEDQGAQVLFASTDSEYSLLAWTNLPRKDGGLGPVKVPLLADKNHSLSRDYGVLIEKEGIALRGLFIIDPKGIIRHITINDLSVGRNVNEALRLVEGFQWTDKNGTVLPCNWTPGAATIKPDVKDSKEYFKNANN

His6-Tsa2 [2] = target: T1, His6-Tsa2; experiment: condition: only individually purified proteins mixed at a 1:1 molar ratio (not coexpressed); pull-down; individually purified proteins mixed at a 1:1 molar ratio; tandem-affinity purification with Ni-NTA agarose followed by StrepTactin agarose beads; both purified
[3] = target: T2, roGFP2-Tsa1 (S. cerevisiae) (UniProt P34760); experiment: native gel or EMSA; clear native PAGE (3-12%) of yeast lysates, imaged for GFP fluorescence; roGFP2 fusions expressed from the genomic loci; cells untreated or treated with 1 mM H2O2 for the indicated times; lysis with 20 mM NEM
T2 sequence: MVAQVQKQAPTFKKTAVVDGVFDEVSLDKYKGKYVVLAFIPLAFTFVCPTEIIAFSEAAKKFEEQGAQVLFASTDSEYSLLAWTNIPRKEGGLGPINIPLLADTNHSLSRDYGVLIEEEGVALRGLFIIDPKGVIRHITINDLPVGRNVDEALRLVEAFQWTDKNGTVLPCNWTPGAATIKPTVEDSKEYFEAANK

[4] = target: T3, roGFP2-Tsa2 (S. cerevisiae) (UniProt Q04120); experiment: as above
T3 sequence: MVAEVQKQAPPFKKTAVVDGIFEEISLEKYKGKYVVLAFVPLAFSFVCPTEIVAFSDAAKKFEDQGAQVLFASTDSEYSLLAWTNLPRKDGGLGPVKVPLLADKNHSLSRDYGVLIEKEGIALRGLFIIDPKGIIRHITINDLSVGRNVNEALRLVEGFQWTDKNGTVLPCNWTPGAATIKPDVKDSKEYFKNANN

His6-Tsa2 [5] = target: T1, His6-Tsa2; experiment: pull-down + other: nonreducing SDS-PAGE of disulfide-linked dimers; coexpressed in E. coli, tandem-affinity copurification; samples treated with 10 mM NEM, nonreducing SDS-PAGE, western blot

B1: Strep-Tsa1 (enzyme, S. cerevisiae, UniProt P34760 1-196, looked up)
chain: MVAQVQKQAPTFKKTAVVDGVFDEVSLDKYKGKYVVLAFIPLAFTFVCPTEIIAFSEAAKKFEEQGAQVLFASTDSEYSLLAWTNIPRKEGGLGPINIPLLADTNHSLSRDYGVLIEEEGVALRGLFIIDPKGVIRHITINDLPVGRNVDEALRLVEAFQWTDKNGTVLPCNWTPGAATIKPTVEDSKEYFEAANK
notes: Tsa1, Prx1/AhpC-type peroxiredoxin of Saccharomyces cerevisiae; TSA1 subcloned from pET15b/His-TSA1; calculated mass of Strep-Tsa1 22.9 kDa; Dimer-decamer equilibrium; also called Strep-tagged Tsa1; Tsa1 homo-oligomer; source: E. coli SHuffle T7 Express, purified (StrepTactin) from pET45b; or coexpressed with His6-Tsa2 / His6-Tsa2-EPEA from pCOLADuet-1 and tandem purified (Ni-NTA, StrepTactin); …
His6-Tsa2 [1]
  binding: binds
His6-Tsa2 [2]
  binding: no binding

B2: Tsa2 (untagged, in yeast) (enzyme, UniProt Q04120 1-196)
chain: MVAEVQKQAPPFKKTAVVDGIFEEISLEKYKGKYVVLAFVPLAFSFVCPTEIVAFSDAAKKFEDQGAQVLFASTDSEYSLLAWTNLPRKDGGLGPVKVPLLADKNHSLSRDYGVLIEKEGIALRGLFIIDPKGIIRHITINDLSVGRNVNEALRLVEGFQWTDKNGTVLPCNWTPGAATIKPDVKDSKEYFKNANN
[3]
  binding: binds

B3: Tsa1 (untagged, in yeast) (enzyme, UniProt P34760 1-196)
chain: MVAQVQKQAPTFKKTAVVDGVFDEVSLDKYKGKYVVLAFIPLAFTFVCPTEIIAFSEAAKKFEEQGAQVLFASTDSEYSLLAWTNIPRKEGGLGPINIPLLADTNHSLSRDYGVLIEEEGVALRGLFIIDPKGVIRHITINDLPVGRNVDEALRLVEAFQWTDKNGTVLPCNWTPGAATIKPTVEDSKEYFEAANK
[4]
  binding: binds

B4: His6-Tsa2 (enzyme, UniProt Q04120 1-196)
chain: MVAEVQKQAPPFKKTAVVDGIFEEISLEKYKGKYVVLAFVPLAFSFVCPTEIVAFSDAAKKFEDQGAQVLFASTDSEYSLLAWTNLPRKDGGLGPVKVPLLADKNHSLSRDYGVLIEKEGIALRGLFIIDPKGIIRHITINDLSVGRNVNEALRLVEGFQWTDKNGTVLPCNWTPGAATIKPDVKDSKEYFKNANN
His6-Tsa2 [5]
  binding: binds
